# The whole screen tested about 360,000 compounds, of which about 7,500 (2.1%) were called active. The shares of active, inactive and inconclusive entries below differ from those in the screen. Calls come from the whole dose curve; as a rule, active = well fitted cell-killing curve with a large enough effect; inconclusive = small, poorly fitted or top-dose-only effect, or effect the other way, or another doubt; inactive = no such curve, though single readings can be large or run the other way. Potencies of inconclusive entries are left out as doubtful fits.
# Experiment: qHTS for induction of synthetic lethality in tumor cells producing 2HG: qHTS for the HT-1080-IDH1KD cell line;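 for activity, negative = toxicity: 0% = DMSO wells and -100% = cell-free medium wells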
# Details: HT-1080 IDH1 knockdown viability, ATP luminescence, 48 h; activity, negative = toxicity: at 46.1 µM (top of the series) unless noted
# Method in brief: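 Knockdown cells (IDH1KD HT-1080) received compounds 2 h after plating at 750 cells/well and were kept 48 h at 37 °C in 5% FBS RPMI. A CellTiter-Glo luminescence read gave % activity for curve fitting.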
# Potency is the fitted concentration of half-maximal effect; tags give direction and shape of the fitted curve.
SMILES,Potency,"activity, negative = toxicity"
Cc1cccc(-n2cc(-c3ccccc3)c3c(N4CCOCC4)ncnc32)c1,active: 13 µM,
COc1ccccc1/C=C/C=N/NC(=O)c1cccs1,,inactive: -22.7%
O=c1[nH]nnc2sc3c(c12)CCCC3,,inactive: 0.518%
O=S(=O)(c1ccccc1)c1nc(-c2ccco2)oc1NCc1ccccc1,"inconclusive [cytotoxic, single point]",
COc1ccc(O)c(/C=c2/sc3nc4cc(C)c(C)cc4n3c2=O)c1,"inconclusive [cytotoxic, single point]",
O=C(Nc1cccc(OC(F)(F)F)c1)C1Cc2c(-c3ccco3)ccnc2O1 (configuration not stated),"inconclusive [cytotoxic, partial curve]",
Cc1ccccc1NC(=O)CNC(=O)c1ccc(C(F)(F)F)cc1,,inactive: 10.9%
O=C(Nc1nc(=O)c2ccccc2s1)c1ccc(F)cc1,active: 1.41 µM,
Cc1cc(N2CCCN(C)CC2)nc2cc(Cl)ccc12,"inconclusive [cytotoxic, single point]",
CCOC(=O)c1c(NC(=O)C(C)Sc2nnc(C)c(=O)[nH]2)sc2c1CCCC2 (configuration not stated),,inactive: -10.3%
Oc1cccc(/C=N/Nc2ccc(Cl)nn2)c1O,"inconclusive [cytotoxic, partial curve]",
Oc1ccccc1-c1nc(NCCN2CCOCC2)c2ccccc2n1,active: 20.6 µM,
CCCC1(c2ccccc2)NC(=O)N(CC(=O)Nc2sc(-c3ccccc3)cc2C(=O)OCC)C1=O (configuration not stated),active: 11.6 µM,
COC(=O)c1c(N)sc2c1CCN(c1ncc(C(F)(F)F)cc1Cl)C2,"inconclusive [cytotoxic, single point]",
CN1CCN(c2ccc(Cl)cc2NC(=O)/C=C/c2cccc(F)c2)CC1,active: 20.6 µM,
Cc1cc(C)cc(OCC(=O)Nc2nc(-c3ccccn3)cs2)c1,"inconclusive [cytotoxic, single point]",
COc1ccc2[nH]c3c(c2c1)CCN1C(=O)C(CC(=O)NCCC2=CCCCC2)C[C@H](C(=O)N(C(C)C)C(C)C)[C@@]31C (some centres not stated),,inactive: -28.6%
O=C(Nc1ccc(-n2nncc2-c2ccco2)cc1)c1cccc(F)c1,"inconclusive [cytotoxic, single point]",
COc1ccc(CN2CC(C(=O)N3CCOCC3)CC2=O)cc1 (configuration not stated),"inconclusive [rising, single point]",
O=C(Nc1nc(-c2cccnc2)cs1)c1ccccc1F,"inconclusive [cytotoxic, single point]",
Cc1ccnc(NCc2cc(Cl)cc(Cl)c2O)c1,,inactive: -7.96%
Cc1ccc(-c2nnn(CC(=O)N(Cc3cccs3)C(C(=O)NC3CCCCC3)c3ccco3)n2)o1 (configuration not stated),,inactive: -0.475%
Brc1ccc2c(c1)OCCOCCOc1cc(Br)ccc1OCCOCCOCCO2,active: 18.4 µM,
CCOC(=O)C1CCN(C(=O)c2ccc(N(C)S(=O)(=O)c3ccc(OC)cc3)cc2)CC1,,inactive: -2.06%

SMILES,Potency,"activity, negative = toxicity"
CCn1cc(C(=O)NCc2ccco2)c(=O)c2cc(S(=O)(=O)N3CCc4ccccc4C3)ccc21,"inconclusive [cytotoxic, single point]",
O=C(COC(=O)c1nc(Cl)ccc1Cl)NCc1ccc(Cl)cc1,,inactive: 0%
COc1cccc(/C=N/Nc2ncnc3c2ncn3Cc2ccccc2)c1O,"inconclusive [cytotoxic, full curve, poor fit]",
CCS(=O)(=O)c1ncc(Cl)c(C(=O)Nc2ccc(C)cc2)n1,active: 14.6 µM,
CC(C)(C)OC(=O)NCCCCCNC(=O)c1[nH]cnc1C(=O)Nc1ccc(Cl)cc1,"inconclusive [cytotoxic, single point]",
COc1ccc(C2CC(c3cccs3)=NN2C(=O)CSC2=NCCS2)cc1 (configuration not stated),,inactive: -16.6%
Cc1cccc(-n2c(C)cc(/C=N/NC(=O)c3cccc([N+](=O)[O-])c3C)c2C)c1,"inconclusive [cytotoxic, single point]",
CCN(CC)c1ccc(/C=N/NC(=O)CCC(=O)NCc2ccccc2)c(O)c1,"inconclusive [cytotoxic, full curve]",
CCOc1cc(/C=N/NC(=O)c2ccccc2-n2cccc2)ccc1O,"inconclusive [cytotoxic, single point]",
COc1cccc(-c2cnc3c(NC=O)cc(-c4ccc(S(C)(=O)=O)cc4)cn23)c1,"inconclusive [cytotoxic, single point]",
c1ccc(-c2noc(-c3ccc4c(c3)OCO4)n2)nc1,active: 2.51 µM,
CC(=O)Nc1ccc(C(=O)CCl)cc1,"inconclusive [cytotoxic, single point]",
COC(=O)[C@@]1(Cc2ccc(OC)cc2)[C@H]2c3cc(C(=O)N4CCCC4)n(Cc4ccc(C)c(F)c4F)c3C[C@H]2CN1C(=O)c1ccccc1,"inconclusive [cytotoxic, single point]",
Cc1ccc(C)c(CN2CCC(CNC(=O)Nc3ccc(Br)cc3F)CC2)c1,"inconclusive [cytotoxic, single point]",
c1ccc2[nH]c(CCCCCc3nc4ccccc4[nH]3)nc2c1,"inconclusive [cytotoxic, single point]",
O=C(O)CSc1nnc(C2COc3ccccc3O2)n1-c1ccccc1 (configuration not stated),,inactive: 9.77%
CC1CCCCN1CCNC(=O)c1ccc2c(c1)N(Cc1cccc(Cl)c1)C(=O)c1ccccc1S2=O (configuration not stated),"inconclusive [cytotoxic, single point]",
CNc1nc(N(C)C)nc(N(C)C)n1,,inconclusive: -1.53% [cytotoxic]
O=C(CNCc1ccccc1)Nc1ccc(Cl)cc1,active: 8.2 µM,
CC1CN(CC(=O)Nc2cccc(C(=O)Nc3cccc(C(F)(F)F)c3)c2)CC(C)O1 (configuration not stated),"inconclusive [cytotoxic, partial curve]",
CC1CCc2c(sc3nc(C4CC4)nc(N4CCN(C(=O)c5ccco5)CC4)c23)C1 (configuration not stated),active: 23.1 µM,
COc1ccc(-c2csc3nc(-c4cccnc4)nc(N4CCC(C(N)=O)CC4)c23)cc1OC,"inconclusive [cytotoxic, single point]",
COc1ccc(C(C#N)=Cc2ccc(N(C)CCC#N)cc2)cc1,"inconclusive [cytotoxic, single point]",
Clc1ccc(C2Nc3cccc4cccc(c34)N2)cc1,,inactive: -4.48%

SMILES,Potency,"activity, negative = toxicity"
CC(C)(C)n1ncc2c(=O)n(CC(=O)NCc3ccccc3)cnc21,active: 16.4 µM,
Cc1cc(C(=O)Nc2ccc(Br)cc2F)n(-c2ccccc2)n1,,inactive: 1.06%
COc1ccc(C(=O)/C=C/c2cc(C(=O)O)cc3c2OCOC3)c(O)c1,"inconclusive [cytotoxic, single point]",
O=C(CNS(=O)(=O)N1CCOCC1)N/N=C/c1cccnc1,,inactive: -0.923%
Cc1ccc2sc3ccc(NC(=O)c4ccccc4Cl)cc3c(=O)c2c1,"inconclusive [cytotoxic, single point]",
COc1cccc(NC(C)C(=O)Nc2cc([N+](=O)[O-])ccc2Cl)c1 (configuration not stated),"inconclusive [cytotoxic, single point]",
O=[N+]([O-])c1ccc(NN=Cc2cc(Br)ccc2O)nc1,active: 4.61 µM,
CON(c1nc(Cl)nc(N(C)C)n1)S(=O)(=O)c1ccc(C)cc1,"inconclusive [cytotoxic, single point]",
CCOC(=O)COc1c(Cl)cc(C2NC(=S)NC(c3ccccc3)=C2C(C)=O)cc1OC (configuration not stated),,inactive: -7.43%
COc1ccc(OC)c(NC(=O)c2cc(-c3cc(C)cc(C)c3O)n[nH]2)c1,"inconclusive [cytotoxic, single point]",
CCc1cc2c(=O)c(-c3ccc(F)cc3)c(C)oc2cc1OCC(=O)O,"inconclusive [rising, partial curve]",
Cc1ccc(-c2nnc(N3CCN(C(=O)COc4ccccc4)CC3)c3ccccc23)cc1,"inconclusive [cytotoxic, single point]",
Cc1ccccc1Sc1ncnc2onc(C)c12,,inactive: -3.62% [at 9.24 µM]
Cc1ccc(NC(=O)c2c(C)noc2-c2snnc2C)cc1,"inconclusive [cytotoxic, single point]",
O=C(Nc1nc2ccccc2[nH]1)c1ccccc1,"inconclusive [cytotoxic, partial curve]",
COc1ccc(N=CC2=C(O)CC(C)(C)CC2=O)cc1,"inconclusive [cytotoxic, single point]",
O=C(NC(=S)Nc1cccnc1)c1cc2ccccc2o1,"inconclusive [rising, partial curve]",
Oc1cc(OCc2ccccc2)ccc1-c1[nH]ncc1-c1ccccc1,active: 23.1 µM,
O=C(NCCc1nnc2ccc(N3CCCCCC3)nn12)c1ccccc1F,,inactive: 26.9%
CCOc1ccc(C(=O)NC(=S)N(Cc2ccccc2)Cc2ccccc2)cc1,"inconclusive [cytotoxic, partial curve]",
CC(=O)Nc1ccc(NC(=O)c2nc(S(=O)(=O)Cc3cccc(C)c3)ncc2Cl)cc1,active: 5.8 µM,
NC1=NC2(CCC(c3ccccc3)CC2)n2c(nc3ccccc32)N1 (configuration not stated),"inconclusive [cytotoxic, single point]",
COc1ccc(/C(C)=N/NC(=O)c2nnn(-c3nonc3N)c2-c2ccccc2)cc1,"inconclusive [cytotoxic, single point]",
O=C(c1ccc(-c2ccccc2Cl)o1)N1CCN(c2ccccc2O)CC1,"inconclusive [cytotoxic, single point]",

# From PubChem BioAssay AID686971 (National Center for Advancing Translational Sciences (NCATS), 2013)
